The results in this text go back to ChEMBL document CHEMBL5308541, “MAIP: An Open-Source Tool to Enrich High-Throughput Screening Output and Identify Novel, Druglike Molecules with Antimalarial Activity” (ACS Med Chem Lett, 2023).

Among all 150,000 compounds or so, about 540 (0.36%) showed an effect of 50% or more. The list shows a part of the results.

What is called % Inhibition is the relative decrease from the control value, in per cent.

The subject of the assay is Plasmodium falciparum. In words: Primary screen in NF54 nanoGlo assay, in single point, at 2uM, 72h; a lower Z score goes with more inhibition. Type of assay: functional, Erythrocyte. To be noted: timepoint 72 hour.
Take `c1ccc(-c2ncn(C3CCNCC3)c2-c2ccccc2Cn2cccn2)cc1`: the “% Inhibition” value is reported as 3% and the Z score is on record as -0.47.

Consider `CCOc1ccc(Nc2nc3ccccc3nc2Nc2cc(C)nn2-c2nc3ccccc3n2C)cc1`, for which the “% Inhibition” value is -6% and the Z score amounted to 0.99.

As to `O=C(Cc1coc2cc(F)ccc12)N1CCO[C@@]2(CCCOC2)C1`, the “% Inhibition” value is given as 4% and the Z score is on record as -0.65.

Consider `CN1C(=O)C[C@@H](CNc2ncnc3[nH]ccc23)[C@@H]1c1nccn1C`, for which the “% Inhibition” value is recorded as -3% and the Z score stood at 0.52.

In the case of `CCc1nccn1CCCNc1nccc(N2CC[C@H](O)C2)n1`, the “% Inhibition” value was 15% and the Z score is -2.67.

Consider `CNC(=O)c1ccc(OC)c(-c2cccc(C(=O)N3CCCC[C@@H]3CN)c2)c1`, for which the “% Inhibition” value came out at 2% and the Z score is listed as -0.28.

Turning to `c1ccc([C@H]2CCCN(CCNCc3cnc(-c4cccs4)nc3)C2)cc1`, the “% Inhibition” value is -5% and the Z score was 0.92.

For `COCCN1CCC[C@H](CNc2nc(N)c3cnn(C)c3n2)C1`, the “% Inhibition” value is -4% and the Z score turned out to be 0.72.

In the case of `CN1CCN(CC2CN(Cc3cccc(N4CCOCC4)c3)CC2CO)CC1` (stereo not drawn), the “% Inhibition” value is given as -13% and the Z score was 2.85.

Turning to `COc1ccc(-c2ccccc2)cc1N1C(=O)C2CC1CN2c1ccnc(N)n1` (stereo not drawn), the “% Inhibition” value is reported as -4% and the Z score stood at 0.84.

With `CC1CC1CC(=O)N1CC(O)(C(F)F)C1` (stereo not drawn), the “% Inhibition” value is reported as -7% and the Z score turned out to be 1.24.

With `CCN(CC)Cc1cnc2c(C(=O)NC3CC(C)(C)NC(C)(C)C3)cnn2c1`, the “% Inhibition” value is listed as -8% and the Z score was determined as 1.41.

`CN1CCC[C@@H](CNc2nc3ccccc3n2C)[C@@H]1c1cncn1C`: the “% Inhibition” value came out at 5% and the Z score is given as -0.9.

On to `COCCN1CCC[C@H](CNCc2cnn(-c3ccc4ccccc4c3)c2)C1`, for which the “% Inhibition” value came out at 40% and the Z score is reported as -8.61.

For the molecule `COC(=O)CCN(C(=O)CCN1C(=O)C2CCCCC2C1=O)C1CCOCC1` (stereo not drawn), the “% Inhibition” value is listed as -5% and the Z score came to 1.06.

Turning to `COc1nc(NCCN2CCC[C@H](C(N)=O)C2)ncc1F`, the “% Inhibition” value is -1% and the Z score is 0.28.

Regarding `C[C@H](O)c1ccc(CNc2ncccc2F)cc1`, the “% Inhibition” value turned out to be 1% and the Z score is recorded as -0.21.

As for `CC(C)(C)c1nc(C(=O)N2CCn3c(Cl)cnc3C2)cs1`, the “% Inhibition” value was -7% and the Z score was determined as 1.29.

As to `CN1CCN(Cc2cc(-c3ccc(F)cc3)ccc2OCC(=O)N2CC=C(c3ccccc3)CC2)CC1`, the “% Inhibition” value is -4% and the Z score was determined as 0.74.

On to `CN(C)C(=O)c1ccc(-c2ccc(-c3ccn[nH]3)cc2)nc1`, for which the “% Inhibition” value is -8% and the Z score is 1.4.

For `Cc1ccc(Nc2ccc(NCCNS(=O)(=O)c3ccccc3F)nn2)nc1`, the “% Inhibition” value came out at 11% and the Z score was -1.96.

Consider `CC1(C)CCCN(c2ccnc(N[C@H]3CCCOCC3)n2)C1`, for which the “% Inhibition” value is listed as 9% and the Z score was -1.88.

Turning to `O=C(O)c1cc(Nc2cc(-c3ccccc3)ncn2)ccc1O`, the “% Inhibition” value was determined as 2% and the Z score is given as -0.45.

In the case of `N#CCN1CCCC1C1CCCCC1O` (stereo not drawn), the “% Inhibition” value stood at 3% and the Z score is reported as -0.46.

Take `Cc1ccc(CN2CCC(N3CCC(Oc4ccc(C(F)(F)F)cn4)CC3)CC2)s1`: the “% Inhibition” value was -2% and the Z score was found to be 0.34.

Consider `O=C(Nc1ccccc1-c1ccccc1)N1CCC(N2CCN(CCO)CC2)CC1`, for which the “% Inhibition” value turned out to be 6% and the Z score is reported as -1.1.

In the case of `CCc1nc2ccc(NC(=O)N3CCN(c4cc(C)nc(N)n4)CC3)cc2[nH]1`, the “% Inhibition” value was -6% and the Z score is on record as 0.99.

For the molecule `Cc1cc2cccc(C(=O)NCC3CCN(c4ncnc5[nH]ccc45)CC3)c2o1`, the “% Inhibition” value is on record as -4% and the Z score is on record as 0.79.

As for `Cc1cc(Cl)cc2c1N(C(=O)c1cccc3nccn13)CCC2`, the “% Inhibition” value is reported as 2% and the Z score was -0.49.

As for `CC(C)(CN1CCCCCC1)NC(=O)c1cccc(-c2ccccc2O)c1`, the “% Inhibition” value was 1% and the Z score is -0.19.

For `O=C(Nc1cncnc1N1CCCC1)c1cc(F)cc2[nH]cnc12`, the “% Inhibition” value amounted to 37% and the Z score is -7.43.

For the molecule `C[C@@H]1CN(C(=O)c2cccc(-c3ccc4cc(O)ccc4c3)c2)[C@@H](C)CN1`, the “% Inhibition” value is on record as -2% and the Z score came to 0.39.

With `Cn1cc(-c2cncc(C(=O)NC3CCN(c4cccc(F)c4)CC3)c2)cn1`, the “% Inhibition” value is given as 50% and the Z score is recorded as -10.8.

Consider `CN1CCN(CCCNC(=O)Nc2cccc(-c3ccn[nH]3)c2)CC1`, for which the “% Inhibition” value is on record as -6% and the Z score is listed as 1.13.

Turning to `Fc1ccc(NCc2ccc(OCC3CC3)cc2)nc1`, the “% Inhibition” value is reported as 1% and the Z score is on record as -0.11.

In the case of `Cc1cc(NCc2nnc3n2-c2ccccc2CC3)c2ccccc2n1`, the “% Inhibition” value is -16% and the Z score is listed as 2.46.

On to `O=C(Cc1c[nH]c2ncccc12)Nc1ccc2c(c1)NC(=O)CC2`, for which the “% Inhibition” value was -1% and the Z score came out at 0.21.

As to `COC(=O)c1cc2n(n1)CCN(C(=O)[C@H](C)N1CCCC1=O)C2`, the “% Inhibition” value is -1% and the Z score is on record as 0.24.

In the case of `CN(C)Cc1ccc(N2CCN(C(=O)c3ccc(-c4ccccc4)[nH]3)CC2)nc1`, the “% Inhibition” value is listed as 1% and the Z score is -0.19.

As for `N#Cc1cnc(NC2COCC2N2CCCC2)nc1N` (stereo not drawn), the “% Inhibition” value is reported as 3% and the Z score is on record as -0.54.

`CN1CCCN(CCNCC2CC3C=CC2C3)CC1` (stereo not drawn): the “% Inhibition” value is given as -7% and the Z score was determined as 1.43.

For `Cc1ncc(S(C)(=O)=O)c(N2CC[C@@]3(CNC(=O)CO3)C2)n1`, the “% Inhibition” value worked out at 4% and the Z score is given as -0.76.

`O=C(CN1CC(O)C(Cc2ccnc3ccccc23)C1)N1CCNCC1` (stereo not drawn): the “% Inhibition” value is given as 2% and the Z score is -0.41.

Regarding `Cc1nscc1C(=O)OCc1ccc2c(c1)COC2`, the “% Inhibition” value was -6% and the Z score turned out to be 0.98.

As for `c1cc2ccc(CN3CCCC4(CCNCC4)CC3)nc2[nH]1`, the “% Inhibition” value is -15% and the Z score is on record as 2.25.

`NC(=O)c1ccc(OCCCN2CCC(Nc3ncccn3)C(O)C2)cc1` (stereo not drawn): the “% Inhibition” value was 0% and the Z score is given as 0.03.

In the case of `COc1nccnc1N1CCC(N2CCC[C@H](C(=O)N3CCOCC3)C2)CC1`, the “% Inhibition” value came out at 5% and the Z score was -0.84.

Regarding `O=C(Cc1ccccc1)Nc1cc(NCc2cccc3cc[nH]c23)ccc1F`, the “% Inhibition” value amounted to 7% and the Z score is reported as -1.27.

Take `CS(=O)(=O)Cc1ccc(F)cc1CNc1nc2ccccc2[nH]1`: the “% Inhibition” value is recorded as -4% and the Z score was 0.64.

Regarding `Cc1cc(CC2CN(C(=O)CCc3[nH]nc(C)c3C)CC2O)on1` (stereo not drawn), the “% Inhibition” value came to 0% and the Z score stood at 0.01.

As to `COc1cccc(C(NCC(O)COc2cccc3[nH]ccc23)c2ccccn2)c1` (stereo not drawn), the “% Inhibition” value is 6% and the Z score is on record as -1.2.

Consider `O=S1(=O)CCC(O)(CNC2CC(c3ccccc3)C2)CC1` (stereo not drawn), for which the “% Inhibition” value is reported as -1% and the Z score is 0.26.

As to `CC(C)N1CCC(N(CCNS(=O)(=O)c2cc(F)cc(F)c2)C2CCOCC2)CC1`, the “% Inhibition” value was -6% and the Z score is 1.13.

As to `Cc1nc(-c2nnc[nH]2)sc1C(=O)N1CCC12COC2`, the “% Inhibition” value turned out to be 3% and the Z score is given as -0.51.
